Data from article PMC9911399, “Two distinct binding modes provide the RNA-binding protein RbFox with extraordinary sequence specificity”.
Numbering of substitutions follows the chain as printed; changes in the protein carry UniProt numbers. The list shows a part of the results.

T1: RBFOX1 RRM RbFoxmut (Fox-RRM*) (Homo sapiens, UniProt Q9NWB1 109-208, R118D;E147R;N151S;E152T)
T1 sequence: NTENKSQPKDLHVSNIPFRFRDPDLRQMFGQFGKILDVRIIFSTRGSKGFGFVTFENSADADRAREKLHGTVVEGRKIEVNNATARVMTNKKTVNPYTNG

B1: GUGUCCA (DNA:RNA)
RNA: GGGAGACCGGAAUUCAGAUUGUCCGUGUCCAUUAAAUCCCGUCGUAGCCACCA
DNA 1: CAATCTGAATTCCGGTCTCCC
DNA 2: TGGTGGCTACGACGGGATT
B2: ACUGUAC (DNA:RNA)
RNA: GGGAGACCGGAAUUCAGAUUGUCCACUGUACUUAAAUCCCGUCGUAGCCACCA
DNA 1: CAATCTGAATTCCGGTCTCCC
DNA 2: TGGTGGCTACGACGGGATT
B3: CAUAUGA (DNA:RNA)
RNA: B2 RNA with A25C, C26A, G28A, A30G, C31A
DNA 1: CAATCTGAATTCCGGTCTCCC
DNA 2: TGGTGGCTACGACGGGATT
B4: GCUGGCG (DNA:RNA)
RNA: B2 RNA with A25G, U29G, A30C, C31G
DNA 1: CAATCTGAATTCCGGTCTCCC
DNA 2: TGGTGGCTACGACGGGATT
B5: CAGAAUG (DNA:RNA)
RNA: B1 RNA with G25C, U26A, U28A, C29A, C30U, A31G
DNA 1: CAATCTGAATTCCGGTCTCCC
DNA 2: TGGTGGCTACGACGGGATT
B6: CUGAACA (DNA:RNA)
RNA: B1 RNA with G25C, U28A, C29A
DNA 1: CAATCTGAATTCCGGTCTCCC
DNA 2: TGGTGGCTACGACGGGATT
B7: CUCGGAC (DNA:RNA)
RNA: B2 RNA with A25C, C26U, U27C, U29G
DNA 1: CAATCTGAATTCCGGTCTCCC
DNA 2: TGGTGGCTACGACGGGATT
B8: AAAAACA (DNA:RNA)
RNA: B1 RNA with G25A, U26A, G27A, U28A, C29A
DNA 1: CAATCTGAATTCCGGTCTCCC
DNA 2: TGGTGGCTACGACGGGATT
B9: UGGUUAU (DNA:RNA)
RNA: B2 RNA with A25U, C26G, U27G, G28U, C31U
DNA 1: CAATCTGAATTCCGGTCTCCC
DNA 2: TGGTGGCTACGACGGGATT
B10: UCACUCA (DNA:RNA)
RNA: B2 RNA with A25U, U27A, G28C, A30C, C31A
DNA 1: CAATCTGAATTCCGGTCTCCC
DNA 2: TGGTGGCTACGACGGGATT
B11: CACAACG (DNA:RNA)
RNA: B1 RNA with G25C, U26A, G27C, U28A, C29A, A31G
DNA 1: CAATCTGAATTCCGGTCTCCC
DNA 2: TGGTGGCTACGACGGGATT
B12: CGAAACC (DNA:RNA)
RNA: B2 RNA with A25C, C26G, U27A, G28A, U29A, A30C
DNA 1: CAATCTGAATTCCGGTCTCCC
DNA 2: TGGTGGCTACGACGGGATT
B13: UAAUCGU (DNA:RNA)
RNA: B1 RNA with G25U, U26A, G27A, C30G, A31U
DNA 1: CAATCTGAATTCCGGTCTCCC
DNA 2: TGGTGGCTACGACGGGATT
B14: CUACUUG (DNA:RNA)
RNA: B2 RNA with A25C, C26U, U27A, G28C, A30U, C31G
DNA 1: CAATCTGAATTCCGGTCTCCC
DNA 2: TGGTGGCTACGACGGGATT
B15: UGAAGGG (DNA:RNA)
RNA: GGGAGACCGGAAUUCAGAUUGUCCUGAAGGGUUAAAUCCCGUCGUAGCCACCA
DNA 1: CAATCTGAATTCCGGTCTCCC
DNA 2: TGGTGGCTACGACGGGATT
B16: UUUAGUU (DNA:RNA)
RNA: B15 RNA with G26U, A27U, G30U, G31U
DNA 1: CAATCTGAATTCCGGTCTCCC
DNA 2: TGGTGGCTACGACGGGATT
B17: CAUGAAA (DNA:RNA)
RNA: B2 RNA with A25C, C26A, U29A, C31A
DNA 1: CAATCTGAATTCCGGTCTCCC
DNA 2: TGGTGGCTACGACGGGATT
B18: GGGAGAA (DNA:RNA)
RNA: B1 RNA with U26G, U28A, C29G, C30A
DNA 1: CAATCTGAATTCCGGTCTCCC
DNA 2: TGGTGGCTACGACGGGATT
B19: CGUCCAC (DNA:RNA)
RNA: B2 RNA with A25C, C26G, G28C, U29C
DNA 1: CAATCTGAATTCCGGTCTCCC
DNA 2: TGGTGGCTACGACGGGATT
B20: AAUCCCC (DNA:RNA)
RNA: B2 RNA with C26A, G28C, U29C, A30C
DNA 1: CAATCTGAATTCCGGTCTCCC
DNA 2: TGGTGGCTACGACGGGATT
B21: CCGGAGG (DNA:RNA)
RNA: B2 RNA with A25C, U27G, U29A, A30G, C31G
DNA 1: CAATCTGAATTCCGGTCTCCC
DNA 2: TGGTGGCTACGACGGGATT
B22: AAAAAUC (DNA:RNA)
RNA: B2 RNA with C26A, U27A, G28A, U29A, A30U
DNA 1: CAATCTGAATTCCGGTCTCCC
DNA 2: TGGTGGCTACGACGGGATT
B23: GUGUUAU (DNA:RNA)
RNA: B1 RNA with C29U, C30A, A31U
DNA 1: CAATCTGAATTCCGGTCTCCC
DNA 2: TGGTGGCTACGACGGGATT
B24: AGUCAAG (DNA:RNA)
RNA: B2 RNA with C26G, G28C, U29A, C31G
DNA 1: CAATCTGAATTCCGGTCTCCC
DNA 2: TGGTGGCTACGACGGGATT
B25: AUCACUC (DNA:RNA)
RNA: B2 RNA with C26U, U27C, G28A, U29C, A30U
DNA 1: CAATCTGAATTCCGGTCTCCC
DNA 2: TGGTGGCTACGACGGGATT
B26: GGCCAGU (DNA:RNA)
RNA: B15 RNA with U25G, A27C, A28C, G29A, G31U
DNA 1: CAATCTGAATTCCGGTCTCCC
DNA 2: TGGTGGCTACGACGGGATT
B27: GGACCAC (DNA:RNA)
RNA: B2 RNA with A25G, C26G, U27A, G28C, U29C
DNA 1: CAATCTGAATTCCGGTCTCCC
DNA 2: TGGTGGCTACGACGGGATT
B28: UACCCCG (DNA:RNA)
RNA: B1 RNA with G25U, U26A, G27C, U28C, A31G
DNA 1: CAATCTGAATTCCGGTCTCCC
DNA 2: TGGTGGCTACGACGGGATT
B29: UGGGACA (DNA:RNA)
RNA: B1 RNA with G25U, U26G, U28G, C29A
DNA 1: CAATCTGAATTCCGGTCTCCC
DNA 2: TGGTGGCTACGACGGGATT
B30: GGUGCGA (DNA:RNA)
RNA: B1 RNA with U26G, G27U, U28G, C30G
DNA 1: CAATCTGAATTCCGGTCTCCC
DNA 2: TGGTGGCTACGACGGGATT
B31: GGUCCCA (DNA:RNA)
RNA: B1 RNA with U26G, G27U, U28C
DNA 1: CAATCTGAATTCCGGTCTCCC
DNA 2: TGGTGGCTACGACGGGATT

Each binder was assayed against T1, RBFOX1 RRM RbFoxmut (Fox-RRM*) (assay: EMSA; HiTS-Eq, 1 nM pool, 10 min; buffer printed only for the single-RNA assays: 10 mM Tris pH 7.5, 150 mM NaCl, 3.4 mM EDTA, 0.001% NP-40, 30 C). Conditions: tags: His6 N-terminal (pET28a); label: 5' 32P.
How it was run: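 Purified RbFox RRM (wild type or mutant) was equilibrated for 10 min in 50 µL with 1 nM of a 5′-radiolabelled pool of RNA with 7 randomized nucleotides, its flanks annealed to DNA oligonucleotides, across increasing protein concentrations. Free RNA was separated by 8% native PAGE, excised, reverse-transcribed, PCR-barcoded and sequenced on an Illumina HiSeq 2500. Relative association constants came from read-count changes of each variant against the control reaction, normalised to the cognate motif.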
In the case of B1, the binding signal is reported as 0.121 KA relative to UGCAUGU. In the case of B2, the binding signal is reported as 0.112 KA relative to UGCAUGU. For B3, the binding signal was 0.117 KA relative to UGCAUGU. In the case of B4, the binding signal is reported as 0.139 KA relative to UGCAUGU. B5 was tested, and the binding signal was 1.17 KA relative to UGCAUGU. B6 was tested, and the binding signal was 0.0653 KA relative to UGCAUGU. In the case of B7, the binding signal is reported as 0.0724 KA relative to UGCAUGU. For B8, the binding signal was 0.075 KA relative to UGCAUGU. B9 was tested, and the binding signal was 0.126 KA relative to UGCAUGU. For B10, the binding signal was 0.0908 KA relative to UGCAUGU. For B11, the binding signal was 0.0933 KA relative to UGCAUGU. B12 was tested, and the binding signal was 0.0635 KA relative to UGCAUGU. In the case of B13, the binding signal is reported as 0.0796 KA relative to UGCAUGU. For B14, the binding signal was 0.102 KA relative to UGCAUGU. In the case of B15, the binding signal is reported as 0.0325 KA relative to UGCAUGU. For B16, the binding signal was 0.101 KA relative to UGCAUGU. B17 was tested, and the binding signal was 0.114 KA relative to UGCAUGU. With B18 the binding signal was 0.107 KA relative to UGCAUGU. For B19, the binding signal was 0.0664 KA relative to UGCAUGU. For B20, the binding signal was 0.0723 KA relative to UGCAUGU. With B21 the binding signal was 0.107 KA relative to UGCAUGU. In the case of B22, the binding signal is reported as 0.0405 KA relative to UGCAUGU. For B23, the binding signal was 0.127 KA relative to UGCAUGU. For B24, the binding signal was 0.0887 KA relative to UGCAUGU. In the case of B25, the binding signal is reported as 0.0365 KA relative to UGCAUGU. For B26, the binding signal was 0.0703 KA relative to UGCAUGU. In the case of B27, the binding signal is reported as 0.0575 KA relative to UGCAUGU. B28 was tested, and the binding signal was 0.103 KA relative to UGCAUGU. In the case of B29, the binding signal is reported as 0.0616 KA relative to UGCAUGU. With B30 the binding signal was 0.131 KA relative to UGCAUGU. With B31 the binding signal was 0.0504 KA relative to UGCAUGU.
